Source: article PMC12040169 (PLOS Biology, 2025)
Some of the results follow.

system: T1, C. trachomatis L2/434/Bu expressing GFP (CTL2-GFP); design: species or system HeLa; C. trachomatis total inclusion area by high-content imaging, normalised to DMSO; conditions: total inclusion area; 28.5 h, 10 µM; inhibitor
T1 construct: L2/434/Bu GFP intracellular growth in HeLa cells
Summary of the method: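 Imaging read-out: GFP inclusions and Hoechst nuclei captured by high-content imaging after fixation. Inclusion area/number = chlamydial growth; nuclei count = host cell viability. MIC calculated per earlier method.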

Structure (SMILES)	% of control remaining
Oc1ccc(-n2cc(-c3ccc(F)cc3)nn2)cc1 [CBK113126]	104.875
CCC1CN(C(=O)Cn2cnc3ccc(F)cc3c2=O)CCO1 (stereo not drawn) [CBK305795]	50.9697
O=C(Nc1ccncc1)OCCc1cccnc1 [CBK200125]	95.4326
CCn1c(CN(C)Cc2cc(C)[nH]n2)nc2ccccc21 [CBK282120]	109.294
O=C(CSc1nnc(COc2ccccc2)n1-c1ccccc1)c1cccs1 [CBK265133]	82.399
Cc1cc(C)nc(NC2=NC3CCCCC3N2C(=O)Nc2ccc(Cl)c(Cl)c2)n1 (stereo not drawn) [CBK266458]	85.9632
Cc1ccc(Cl)cc1NC(=N)NC(=N)N [CBK268049]	121.252
O=C(O)c1ccc(-n2ccnc2)c(C#Cc2ccccc2)c1 [CBK284502]	115.611
Cn1c(-c2ccccc2)cnc1NC(=O)CC1CCN(C(=O)Cc2ccccc2)CC1 [CBK285966]	121.015
Cc1ccc(SCCNS(=O)(=O)c2cccc([N+](=O)[O-])c2)cc1 [CBK267508]	81.5281
Cc1nn(-c2cccc(Br)c2)c(C)c1[C@@H]1C=C[C@@H](NS(C)(=O)=O)C1 [CBK288806]	110.384
Cc1cccc(OCCNC(=O)CN2CCCC2c2cnn(C)c2)c1 (stereo not drawn) [CBK305826]	79.2148
O=C(O)/C(O)=C/C(=O)c1ccc(F)cc1 [CBK261844]	92.0278
Cc1nsc(NCc2ccccc2CN2CCC(O)CC2)c1C#N [CBK304695]	68.582
COCC(=O)N1CCC(c2onc3c2CC(C)CC3)CC1 (stereo not drawn) [CBK284599]	96.6699
CC(C(=O)N1CCC(c2ccncc2)CC1)c1ccccc1 (stereo not drawn) [CBK285484]	99.9464
CCc1nc(CN2CCN(c3ccc4nc(C)nn4n3)CC2)cs1 [CBK306285]	62.9256
Cc1cccc(-c2nc(CN3CCOCC3)cs2)c1 [CBK270299]	112.169
COc1ccc(CCOc2nccnc2-c2ccc(OC(F)(F)F)cc2)cc1 [CBK106846]	79.4067
Cc1ccccc1C(=O)Nc1nc2ccc(S(C)(=O)=O)cc2s1 [CBK287337]	92.2011
CN(C)S(=O)(=O)c1ccc(Cl)c(C(=O)Nc2cccc([N+](=O)[O-])c2)c1 [CBK265721]	112.793

Structure (SMILES)	% of control remaining
CCCN1C[C@H](NC(=O)CC)[C@@H](c2ccc(OC)cc2)C1 [CBK282134]	77.2318
CCCCC(c1nnn[nH]1)n1nnc2ccccc21 (stereo not drawn) [CBK023526]	85.6874
CSCCOc1cncc(N2CCCC2)n1 [CBK115761]	116.543
CCCc1ccc(C(=O)NCC(C)n2cncn2)o1 (stereo not drawn) [CBK282883]	110.268
Cn1cc(-c2ccc(C3CCCCN3Cc3ccnc4ccccc34)cn2)cn1 (stereo not drawn) [CBK285672]	101.691
Cc1cccc(-c2cn3ccnc3c(N3CCN(c4ccccn4)CC3)n2)c1 [CBK066478]	116.473
CSc1nnc(-c2cccc(C)c2)n1CC1CCCCC1 [CBK085418]	101.624
O=C(O)c1ccc(CSc2nnc(-c3ccccc3)n2Cc2ccccc2)cc1 [CBK265013]	98.9438
CC(=O)NCc1cccc(-c2cc(OCC3COc4ccccc4O3)cnc2C)c1 (stereo not drawn) [CBK161723A]	87.8969
O=C(Nc1cccc2[nH]ccc12)c1ccc2c(c1)OCCO2 [CBK159657]	108.036
CCCC12CN3CC(CCC)(CN(C1)C3c1ccc(O)c(OC)c1)C2=O (stereo not drawn) [CBK265531]	108.726
COc1cc(C(=O)N2CCC3(CC2)CC(=O)c2cc(NC(C)=O)ccc2O3)nc2c(OC)cccc12 [CBK170664]	94.235
CCOc1cccc(N2C(=O)CC(N3CCC(C(N)=O)(N4CCCCC4)CC3)C2=O)c1 (stereo not drawn) [CBK263562]	59.8725
Cc1nonc1OCCN1CCN(c2cc3c(cc2[N+](=O)[O-])n(C)c(=O)n3C)CC1 [CBK267676]	103.425
CCOC(=O)c1cccc(NC(=O)CSc2nc3cccnc3[nH]2)c1 [CBK269354]	75.5752
CC12CN(S(=O)(=O)c3ccccc3)CC(c3ccccc3)(CN(S(=O)(=O)c3ccccc3)C1)C2=O [CBK268101]	108.625
CC1CN(C)c2ccccc2CN1C(=O)Cc1cn2ccsc2n1 (stereo not drawn) [CBK306355]	104.798
Cc1ccc(-c2noc(CN3CCN(Cc4ccccc4)CC3)n2)cc1 [CBK267288]	105.177
COC(=O)Cn1nnc(-c2ccccc2)n1 [CBK069215]	100.048
O=C(C1CC1)N1CCC(C(=O)N(Cc2ccco2)c2ccccc2)CC1 [CBK298269]	87.1981
CC(=O)Nc1ccc(NC(=O)CCC(=O)O)cc1C [CBK265395]	95.2899

Structure (SMILES)	% of control remaining
CC(NC(=O)N1CCCN(Cc2cccs2)CC1)c1nncn1C (stereo not drawn) [CBK305322]	70.4893
COc1ccccc1-c1ccccc1CC1(C(=O)NCc2ccc(F)cc2)CCOCC1 [CBK286425]	93.5026
c1ccc2c(OCc3nnn[nH]3)cccc2c1 [CBK269495]	87.0197
Cc1onc(-c2ccccc2)c1CNC(=O)CC1CC1 [CBK144072]	102.061
CN(C)CCNc1cc(-c2ccncc2)nc2ccccc12 [CBK066898B]	64.1624
Cc1nc(CC(=O)NC(Cc2ccsc2)c2nccs2)cs1 (stereo not drawn) [CBK282823]	105.593
O=C(CC(C(=O)O)P(=O)(c1ccccc1)c1ccccc1)c1ccccc1 (stereo not drawn) [CBK264971]	114.352
O=C(O)CCC(=O)Nc1cccc(NC(=O)c2ccc(Br)cc2)c1 [CBK300180]	95.8923
CNCCc1n[nH]c(N)n1 [CBK020959]	87.2778
O=[N+]([O-])c1ccc(Cl)cc1CN1CCN(C/C=C/c2ccccc2)CC1 [CBK261568]	108.378
COc1ccc(Nc2nc(-c3cccc(-c4ccccc4)c3)cnc2N)cc1 [CBK063593]	113.14
Cn1c(=O)[nH]c(=O)c2c1nc(N/N=C/c1cc(Br)ccc1O)n2CCO [CBK139415]	63.6967
COc1ccccc1NC(=O)c1ccc(OCC(=O)O)cc1 [CBK265849]	57.1642
O=C(NCC(c1ccccc1)c1c[nH]c2ccccc12)Nc1ccc(Cl)cc1 (stereo not drawn) [CBK269147]	89.3121
O=C(NC1Cc2ccccc2C1)c1nc2ccccc2[nH]1 [CBK200361]	87.8021
Cc1ccc(O)c(NC(=O)COc2ccc(Cl)cc2)c1 [CBK268670]	96.2045
Cc1cc(C(=O)N2CCN3C(=O)CCC32C)c(C2CC2)o1 (stereo not drawn) [CBK282092]	88.8917
O=C(O)c1ccc(Nc2ncnc3c2oc2ccccc23)cc1 [CBK269825C]	88.7279
C/C=N\n1c(CO)nnc1CO [CBK034325]	82.8016
CCN1CCCC1CN(Cc1cnn(C)c1)Cc1ccco1 (stereo not drawn) [CBK282470]	112.393
O=C(Cc1ccsc1)N1CCn2nc(C(O)Cc3ccccc3)cc2C1 (stereo not drawn) [CBK306547]	63.9528

Structure (SMILES)	% of control remaining
O=C(COc1ccc2ccccc2c1)Oc1ccc2ccccc2c1 [CBK264885]	105.287
Cc1nc(N)nc(N[C@@H]2CCOC[C@H]2OCCN(C)C)c1Cl [CBK307024]	49.2237
Cc1ccc(Cn2nc(NC(=O)c3cc(C)on3)c3ccccc32)cc1 [CBK048215]	103.555
Cc1cn(C2CC(O)C(CO)O2)c(=O)nc1SCCC#N (stereo not drawn) [CBK201201]	104.181
Cc1nc2ccc(C(=O)N(C)CCN(C)C)cn2c1N(C)Cc1cccs1 [CBK146083]	98.775
Cc1ccc2c(c1)C(=O)CC1(CCC3C(C(=O)N4CCCC4)C31)O2 (stereo not drawn) [CBK284951]	93.9963
Cc1cc(C)n(CC(=O)NCCCn2ccnc2C(C)C)c(=O)n1 [CBK307185]	29.739
Cc1ccccc1C(=O)Nc1cccc(NC(=S)NC(=O)c2cccs2)c1 [CBK263895]	107.71
CC(C)C[C@H](NC(=O)N1CC(=O)Nc2ccccc21)C(=O)O [CBK286589]	51.0276
FC(F)(F)c1ccnc(Sc2ccccn2)n1 [CBK093786]	101.427
CC(=O)N1c2ccc(C(O)CN3CCSCC3)cc2CC1C (stereo not drawn) [CBK283143]	102.646
CCN(Cc1ccncc1)C(=O)NCc1c(Cl)cccc1Cl [CBK155144]	81.5085
CC(C)C1OC(NC2CC(C)(C)NC(C)(C)C2)=NC1=O (stereo not drawn) [CBK070360T]	78.4905
CN1CCC(N(C)C(=O)NCCN2CCOCC2)C1 (stereo not drawn) [CBK156002]	77.1434
Cc1cc(Cl)ccc1NC(=O)COC(=O)c1ccccc1I [CBK265638]	113.22
N#CC1=C(N)Oc2[nH]nc(-c3cccs3)c2C1c1ccco1 (stereo not drawn) [CBK266088]	119.433
CC(C)(C)CCNCCN1CCOCC1 [CBK001895]	91.9226
Nc1nc(=O)[nH]c2c1ncn2[C@H]1C[C@@H](O)[C@@H](CO)O1 [CBK201323]	108.845
COc1ccc(NC(=O)Nc2nn(Cc3c(F)cccc3Cl)cc2Cl)cc1OC [CBK267019]	125.985
O=C(NC1CCCCC1)c1cc(S(=O)(=O)N2CCOCC2)ccc1Cl [CBK261662]	105.298
CNC(=O)Nc1cccc(S(N)(=O)=O)c1 [CBK023839]	99.5524
